Measured values published in PubChem BioAssay AID686971 (National Center for Advancing Translational Sciences (NCATS), 2013).
Where “and” joins values, the source holds several entries; their conditions need not be identical. Equal values may be shown once. About 7,500 (2.1%) of roughly 360,000 compounds were called active. The shares of active, inactive and inconclusive entries below differ from those in the screen. Calls follow the shape of the dose curve; as a rule, active = well fitted cell-killing curve with a large enough effect; inconclusive = small, poorly fitted or top-dose-only effect, or effect the other way, or another doubt; inactive = no such curve, though single readings can be large or run the other way. Potencies beside an inconclusive call are fits to weak or partial responses and may not hold up.

Experiment: qHTS for induction of synthetic lethality in tumor cells producing 2HG: qHTS for the HT-1080-IDH1KD cell line;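 as to activity, negative = toxicity: 0% = DMSO wells and -100% = cell-free medium wells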
Details: HT-1080 IDH1 knockdown viability, ATP luminescence, 48 h; activity, negative = toxicity: at 46.1 µM (top of the series) unless noted
In short: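 CellTiter-Glo luminescence after 48 h compound exposure at 37 degrees C of IDH1-knockdown HT-1080 cells in 5% FBS RPMI. %Activity scaled between DMSO wells and cell-free media wells, with curves fitted and assigned curve classes.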
Potency is read from the fitted curve at half-maximal effect; tags tell the direction and shape of the fitted curve.

| Compound | Potency | activity, negative = toxicity |
| --- | --- | --- |
| O=C(Nc1ccc2c(c1)Cc1ccccc1-2)c1ccccc1F | inconclusive: 14.6 µM [cytotoxic, single point] | – |
| CNc1snc(C)c1C(=O)OCC(=O)c1ccc(Cl)cc1 | inconclusive: 29.1 µM [cytotoxic, single point] | – |
| CCOc1ccccc1-n1c(SCC(=O)NC(C)CC)nnc1-c1ccoc1C (configuration not stated) | – | inactive: 5.11% |
| CCOc1c(OC(C)=O)ccc(/C=C/c2ccc3cccc(OC(C)=O)c3n2)c1[N+](=O)[O-] | inconclusive: 22.4 µM [cytotoxic, single point] | – |
| CCCS(=O)(=O)NC(=O)C1(C)CCN(C(=O)c2cc(F)cc(F)c2)C1 (configuration not stated) | inconclusive: 7.31 µM [rising, partial curve, poor fit] | – |
| COc1ccc(OC)c(/C=N/NC(=O)c2ccc(=O)[nH]n2)c1 | – | inactive: -0.714% |
| CCCCOc1ccc(/C=C(\C#N)C(=O)NC2CC2)cc1 | – | inactive: 15.2% |
| O=c1[nH]c(=S)ccn1C1OC(CO)C(O)C1O (configuration not stated) | – | inactive: -22% |
| O=C(NCc1ccccc1)c1cccc(NC(=O)c2ccco2)c1 | active: 4.11 µM | – |
| COc1cccc(CC(=O)N2CCC(n3nccc3NC(=O)C3CC3)CC2)c1 | inconclusive: 29.1 µM [rising, single point] | – |
| O=[N+]([O-])c1ccc(NC(=S)NCc2ccc(F)cc2)cc1 | active: 23.1 µM | – |
| COc1cc(NC(=O)c2ccc(Cl)cc2)c(OC)cc1NC(=O)CN1CCCCC1 | inconclusive: 20.6 µM [cytotoxic, single point] | – |
| NC(=O)/C=C\C(=O)Nc1cccc(C(F)(F)F)c1 | active: 10 µM | – |
| O=C(CCc1ccc(S(=O)(=O)N2CCOCC2)cc1)Nc1ccc(F)c(F)c1F | – | inactive: 5.11% |
| CCOC(=O)[C@]12CCC=C1N(Cc1ccco1)C(=O)[C@H](CC(=O)NCC13CC4CC(CC(C4)C1)C3)C2 | inconclusive: 29.1 µM [cytotoxic, single point] | – |
| NS(=O)(=O)c1ccc(CCNCc2ccccc2OCc2ccc(F)cc2)cc1 | inconclusive: 29.1 µM [cytotoxic, single point] | – |
| CCN(CC)S(=O)(=O)c1ccc2oc(SCC3CN=C(c4ccc(OC)cc4)S3)nc2c1 (configuration not stated) | – | inconclusive: -35.2% [cytotoxic] |
| CN1CCN(C2=Cc3ccc(Cl)cc3Sc3ccc(F)cc32)CC1 | inconclusive: 29.1 µM [cytotoxic, single point] | – |
| CN(C(=O)CSc1nnc(-c2cccc(F)c2)n1N)C1CCS(=O)(=O)C1 (configuration not stated) | – | inactive: 19.7% |
| CC(Oc1ccccc1Cl)C(=O)Nc1ccc(S(=O)(=O)N2CCN(C)CC2)cc1 (configuration not stated) | inconclusive: 32.6 µM [cytotoxic, single point] | – |
| Cc1cc(OCCOc2cccc3cccnc23)cc(C)c1Cl | inconclusive: 23.1 µM [cytotoxic, single point] | – |
| COc1cc(NC(=O)c2nccnc2N)cc(C(=O)Nc2cccc(C(F)(F)F)c2)c1 | inactive and inconclusive: 16.4 µM [cytotoxic, partial curve] | – |
| O=C(Cn1c(-c2cscn2)nc2ccccc21)Nc1ccccc1F | inconclusive: 22.4 µM [cytotoxic, partial curve, poor fit] | – |
| CCc1ccc(/C=c2\s/c(=C\C(=O)C(C)(C)C)[nH]c2=O)cc1 | inconclusive: 18.4 µM [cytotoxic, single point] | – |

| Compound | Potency | activity, negative = toxicity |
| --- | --- | --- |
| N/C(=N/OC(=O)c1ccccc1Cl)c1ncc([N+](=O)[O-])s1 | active: 18.4 µM | – |
| CN(C1(C)CCS(=O)(=O)C1)S(=O)(=O)c1ccc2ccccc2c1 (configuration not stated) | – | inactive: -2.08% |
| CCOc1ccc(CCN2C(=S)N([C@@H](CC(C)C)CN3CCC[C@@H]3CN3C(=S)NC[C@@H]3Cc3ccc(O)cc3)C[C@@H]2CC(C)C)cc1 | inconclusive: 13 µM [cytotoxic, partial curve] | – |
| CN=c1scc(-c2ccc(OC)cc2)n1/N=C(\C)c1cccnc1 | inconclusive: 29.1 µM [cytotoxic, single point] | – |
| Cc1ccc2c(c1)C(O)(C1COC(C)(C)CC1=O)C(=O)N2C (configuration not stated) | – | inactive: 23.4% |
| CCC(=O)Nc1nc(C)c(-c2csc(Nc3ccccn3)n2)s1 | inconclusive: 16.4 µM [cytotoxic, single point] | – |
| COc1ccc(-n2c(=S)[nH]c3cc(C(=O)Nc4ccc(OC)c(OC)c4)ccc3c2=O)cc1 | inconclusive: 2.91 µM [cytotoxic, full curve] | – |
| O=C(O)c1ccc(N/N=C/c2ccc(-c3ccc(Cl)cc3Cl)o2)cc1 | inconclusive: 11.6 µM [cytotoxic, single point] | – |
| COc1ccc(CCN2C(=S)N(c3ccc(Cl)cc3)C(=O)C2CC(N)=O)cc1OC (configuration not stated) | inconclusive: 23.1 µM [cytotoxic, single point] | – |
| CCC(=O)Nc1cccc(C(=O)/C=C/c2cc(Br)ccc2OC)c1 | active: 8.2 µM | – |
| CCOC(=O)C1=C(C)C(c2cccc(Oc3ccccc3)c2)NC(=S)N1 (configuration not stated) | inconclusive: 23.1 µM [cytotoxic, single point] | – |
| C/C=C/COc1nc2c(c(=O)n(C)c(=O)n2C)n1C | – | inactive: 13.4% |
| CC1(C)CC2CC(C)(CN2C(=O)COC(=O)c2ccc(Cl)c(N)c2)C1 (configuration not stated) | inconclusive: 22.4 µM [cytotoxic, single point] | – |
| O=C(COC(=O)c1cccc2c1C(=O)c1ccccc1C2=O)NC1CCCCC1 | inconclusive: 18.4 µM [cytotoxic, single point] | – |
| Cc1cccc(NCC(=O)N/N=C/c2cccc(Br)c2)c1 | – | inactive: 0.136% |
| COc1cc(-c2noc(C)c2C#Cc2nccn2C)cc(OC)c1OC | inconclusive: 18.4 µM [cytotoxic, single point] | – |
| CN(C)c1nc(OCCNC(=O)Nc2ccccc2)nc(N(C)C)n1 | – | inactive: 10.9% |
| O=C(/C=C/c1ccccc1Cl)N(Cc1ccc(Cl)cc1)C1CCS(=O)(=O)C1 (configuration not stated) | – | inconclusive: -30.2% [cytotoxic] |
| Cc1ccc(-c2csc(NC(=O)c3cccc([N+](=O)[O-])c3)n2)cc1 | – | inactive: -11.9% |
| Cc1ccc(NC(=O)c2ccccc2OCC(=O)Nc2ccccc2F)cc1S(=O)(=O)N(C)C | inconclusive: 29.1 µM [cytotoxic, single point] | – |
| CN1CCN(C2Cc3ccccc3Sc3cc(C(F)(F)F)ccc32)CC1 (configuration not stated) | active: 20.6 µM | – |
| c1ccc2[nH]c(-c3ccc4c(c3)OCO4)nc2c1 | active: 25.9 µM | – |
| CCS(=O)(=O)N1CCN=C1SCc1cccnc1 | – | inactive: 9.92% |
| COc1ccc(CCNC(=O)C/C(C)=N/NC(=O)C23CC4CC(CC(C4)C2)C3)cc1OC | inconclusive: 14.6 µM [cytotoxic, partial curve] | – |

| Compound | Potency | activity, negative = toxicity |
| --- | --- | --- |
| COc1ccc(/C=C2/CCC(CN3CCOCC3)C2=O)cc1 (configuration not stated) | active: 6.51 µM | – |
| CS(=O)(=O)Nc1cccc(C2=NN(S(=O)(=O)c3ccccc3)C(c3cccs3)C2)c1 (configuration not stated) | inconclusive: 35.5 µM [cytotoxic, single point] | – |
| Nc1cc(S(=O)(=O)Nc2cc(Cl)ccc2Cl)ccc1N1CCCC1 | inconclusive: 16.4 µM [cytotoxic, single point] | – |
| Cn1cccc1Cc1nnc(SCC(=O)NCc2ccccc2)n1-c1ccc(F)cc1 | – | inactive: 9.82% |
| CCOc1ccc(CCNC(=O)COC(=O)c2c(C)nn(-c3ccccc3)c2C)cc1OCC | – | inactive: -8.17% |
| Cc1ccc(NNC(=O)C2CCC2)cc1C | active: 7.31 µM | – |
| CCC1C(=O)n2nc(-c3ccccc3)cc2N=C1C (configuration not stated) | – | inactive: -4.91% |
| C#CCOCCOCCOCCNc1nc(N2CCN(C(=O)CCCCCCCCCCNC(=O)Cn3cc(CCCCCN)nn3)CC2)nc(N2CCN(C(=O)CCCCCCCCCCNC(=O)Cn3cc(CCCCCN)nn3)CC2)n1 | inconclusive: 29.1 µM [cytotoxic, single point] | – |
| Cc1cccc(C(=O)Nc2ccc(N3CCN(S(C)(=O)=O)CC3)cc2)c1 | – | inactive: 0.0029% |
| CCC(C(=O)NC(C)(C)C)N(C(=O)Cn1nnc(-c2ccccc2F)n1)c1cccc2c1CCCC2 (configuration not stated) | – | inactive: 3.52% |
| COc1cccc(/C=N/NC(=O)c2ccc(=O)[nH]n2)c1O | active: 23.1 µM | – |
| COc1ccc(NC(=O)C2c3ccccc3OCC(=O)N2Cc2ccco2)cc1 (configuration not stated) | – | inactive: 3.01% |
| Cc1noc(C)c1CS(=O)(=O)c1ccc([N+](=O)[O-])cc1 | – | inactive: -1.21% |
| OC[C@@H]1[C@@H](c2ccccc2)C(c2cccc(Cl)c2)=NN1c1ccccc1 | inconclusive: 29.1 µM [cytotoxic, single point] | – |
| CC[n+]1c(/C=C2/C=C(C)CC(C)(C)C2)sc2ccc(OC)cc21 | inconclusive: 23.1 µM [cytotoxic, single point] | – |
| Cc1cc2oc3ccc(NCCCn4ccnc4)cc3c(=O)c2cc1C | inconclusive: 29.1 µM [cytotoxic, single point] | – |
| Cc1ccc2[nH]cc(S(=O)(=O)c3ccc(C(C)C)cc3)c(=O)c2c1 | – | inactive: -11.7% |
| CC(O)[C@@]1(O)CC[C@H]2[C@@H]3CC[C@H]4C[C@@H](O)CC[C@]4(C)C3=CC[C@@]21C (some centres not stated) | – | inactive: -8.19% |
| COc1cc(-c2csc(C)n2)ccc1O | – | inactive: 14.6% |
| O=C(OCCOc1ccc(Cl)cc1)c1cc(S(=O)(=O)N2CCCCC2)ccc1N1CCOCC1 | inconclusive: 29.1 µM [cytotoxic, single point] | – |
| Cc1cccc(-n2cnc3cc(C(=O)NCC4CCCO4)ccc32)c1 (configuration not stated) | inconclusive: 29.1 µM [cytotoxic, single point] | – |
| O=C(COC(=O)Cc1c(F)cccc1Cl)NNC(=O)c1ccccc1 | – | inactive: 4.72% |
| O=C(O)CC/C(=N/Nc1ccc([N+](=O)[O-])cc1)C(=O)O | active: 5.8 µM | – |
| COc1ccc(N2C3=C(CC4=C2CC(C)(C)CC4=O)C(=O)CC(C)(C)C3)cc1 | inconclusive: 6.31 µM [cytotoxic, single point] | – |
